# Test results: patent US10299477B2 (priority 2015, dated 2019)
# Test system: Colletotrichum orbiculare
# Details: 250 ppm, sprayed 2.5 ml/pot before inoculation; evaluated 6-10 days after inoculation
row,SMILES,"Test H (control value class, anthracnose on cucumber)"
1,COc1cc(F)c(-c2c(-c3cc(F)cc(F)c3Cl)ccc(=O)n2C)c(F)c1 [Compound 676],H (H shows more than 50% of control values)
2,COc1cc(F)c(-c2c(-c3cc(F)cc(F)c3Cl)ccc(=O)n2CC(F)F)c(F)c1 [Compound 678],H (H shows more than 50% of control values)
3,COc1cc(F)c(-c2c(-c3cc(F)cc(F)c3Cl)cc(Cl)c(=O)n2CC(F)F)c(F)c1 [Compound 679],H (H shows more than 50% of control values)
4,Cn1c(-c2c(F)cc(Br)cc2F)c(-c2cc(F)ccc2Cl)ccc1=O [Compound 680],H (H shows more than 50% of control values)
5,Cn1c(-c2c(F)cc(Br)cc2F)c(-c2cc(F)ccc2Cl)cc(Cl)c1=O [Compound 681],H (H shows more than 50% of control values)
6,CCn1c(-c2c(F)cc(F)cc2F)c(-c2cccc(F)c2C)cc(Br)c1=O [Compound 682],H (H shows more than 50% of control values)
7,CCn1c(-c2c(F)cc(F)cc2F)c(-c2ccccc2Cl)cc(Br)c1=O [Compound 683],H (H shows more than 50% of control values)
8,CCOc1cc(F)c(-c2c(-c3ccccc3Cl)ccc(=O)n2CC)c(F)c1 [Compound 685],H (H shows more than 50% of control values)
9,CCn1c(-c2c(F)cc(OC)cc2F)c(-c2ccccc2Cl)cc(Br)c1=O [Compound 686],H (H shows more than 50% of control values)
10,CCn1c(-c2c(F)cc(F)cc2F)c(-c2ccccc2Cl)cc(C)c1=O [Compound 687],H (H shows more than 50% of control values)
11,CCn1c(-c2c(F)cc(F)cc2F)c(-c2cc(F)cc(F)c2Cl)cc(C)c1=O [Compound 689],H (H shows more than 50% of control values)
12,Cc1cc(F)c(-c2c(-c3cc(F)ccc3Cl)ccc(=O)n2C)c(F)c1 [Compound 690],H (H shows more than 50% of control values)
13,Cc1cc(F)c(-c2c(-c3cc(F)ccc3Cl)cc(Cl)c(=O)n2C)c(F)c1 [Compound 691],H (H shows more than 50% of control values)
14,CCn1c(-c2c(F)cc(Br)cc2F)c(-c2cc(F)ccc2Cl)ccc1=O [Compound 692],L (L shows 50% or less of control values)
15,CCn1c(-c2c(F)cc(OC)cc2F)c(-c2cc(F)cc(F)c2Cl)ccc1=O [Compound 693],H (H shows more than 50% of control values)
16,Cc1cc(-c2cc(F)cc(F)c2Cl)c(-c2c(F)cc(F)cc2F)n(C)c1=O [Compound 694],H (H shows more than 50% of control values)
17,CCn1c(-c2c(F)cc(OC)cc2F)c(-c2cc(F)cc(F)c2Cl)cc(Br)c1=O [Compound 695],H (H shows more than 50% of control values)
18,CCn1c(-c2c(F)cc(F)cc2F)c(-c2cc(OC)cc(OC)c2Cl)ccc1=O [Compound 696],H (H shows more than 50% of control values)
19,CCn1c(-c2c(F)cc(OC)cc2F)c(-c2cccc(F)c2C)ccc1=O [Compound 697],H (H shows more than 50% of control values)
20,CCOc1cc(F)c(-c2c(-c3cccc(F)c3C)ccc(=O)n2CC)c(F)c1 [Compound 698],H (H shows more than 50% of control values)
21,CCn1c(-c2c(F)cc(OC)cc2F)c(-c2cccc(F)c2C)cc(Cl)c1=O [Compound 699],H (H shows more than 50% of control values)

row,SMILES,"Test H (control value class, anthracnose on cucumber)"
1,CCn1c(-c2c(F)cc(OC)cc2F)c(-c2ccccc2Cl)cc(C)c1=O [Compound 701],H (H shows more than 50% of control values)
2,CCOc1cc(F)c(-c2c(-c3ccccc3Cl)cc(C)c(=O)n2CC)c(F)c1 [Compound 702],H (H shows more than 50% of control values)
3,CCOc1cc(F)c(-c2c(-c3ccccc3Cl)cc(Br)c(=O)n2CC)c(F)c1 [Compound 703],H (H shows more than 50% of control values)
4,COc1ccc(Cl)c(C2=C(c3c(F)cccc3F)N(C#N)C(=O)CC2)c1 [Compound 704],L (L shows 50% or less of control values)
5,CN1C(=O)CCC(c2ccccc2Cl)=C1c1c(F)cc(F)cc1F [Compound 705],H (H shows more than 50% of control values)
6,CCn1c(-c2c(F)cc(Br)cc2F)c(-c2cc(F)ccc2Cl)cc(Cl)c1=O [Compound 706],L (L shows 50% or less of control values)
7,CCn1c(-c2c(F)cc(C)cc2F)c(-c2cc(F)ccc2Cl)ccc1=O [Compound 707],L (L shows 50% or less of control values)
8,CCn1c(-c2c(F)cc(C)cc2F)c(-c2cc(F)ccc2Cl)cc(Cl)c1=O [Compound 708],L (L shows 50% or less of control values)
9,CCn1c(-c2c(F)cc(C)cc2F)c(-c2cc(F)ccc2Cl)cc(C)c1=O [Compound 710],H (H shows more than 50% of control values)
10,CCn1c(-c2c(F)cc(OC)cc2F)c(-c2cccc(F)c2C)cc(Br)c1=O [Compound 711],H (H shows more than 50% of control values)
11,CCOc1cc(F)c(-c2c(-c3cccc(F)c3C)cc(Br)c(=O)n2CC)c(F)c1 [Compound 712],H (H shows more than 50% of control values)
12,CCOc1cc(F)c(-c2c(-c3cccc(F)c3C)cc(C)c(=O)n2CC)c(F)c1 [Compound 713],H (H shows more than 50% of control values)
13,CCn1c(-c2c(F)cc(OC)cc2F)c(-c2cc(F)cc(F)c2Cl)cc(C)c1=O [Compound 714],H (H shows more than 50% of control values)
14,CCn1c(-c2c(F)cc(F)cc2F)c(-c2ccccc2Cl)ccc1=O [Compound 715],H (H shows more than 50% of control values)
15,CCn1c(-c2c(F)cc(OC)cc2F)c(-c2cc(OC)cc(OC)c2Cl)ccc1=O [Compound 716],H (H shows more than 50% of control values)
16,COc1cc(F)c(-c2c(-c3cc(F)cc(F)c3Cl)cc(Br)c(=O)n2C)c(F)c1 [Compound 717],H (H shows more than 50% of control values)
17,CCn1c(-c2c(F)cc(OC)cc2F)c(-c2ccccc2Cl)ccc1=O [Compound 718],H (H shows more than 50% of control values)
18,Cn1c(-c2c(F)cc(F)cc2F)c(-c2ccccc2Cl)cc(Br)c1=O [Compound 720],H (H shows more than 50% of control values)
19,COc1cc(F)c(-c2c(-c3cc(OC)ccc3Cl)ccc(=O)n2C)c(F)c1 [Compound 721],H (H shows more than 50% of control values)
20,COc1cc(F)c(-c2c(-c3cc(OC)ccc3Cl)cc(Cl)c(=O)n2C)c(F)c1 [Compound 722],H (H shows more than 50% of control values)
